# Data: the supplement of paper PMC11417369
# The list shows a part of the results.
# Test system: PfHDP1 homeodomain (GST-tagged)
# Assay: gcPBM binding intensity (ln(normalized median fluorescence intensity)); higher = stronger DNA binding
# Method in brief: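 In this array assay, P. falciparum DNA-binding domains with a GST tag, expressed in E. coli, were applied for 1 h to primer-extended double-stranded 36-bp intergenic genomic probes and negative controls on an Agilent 4 × 180k array. Bound protein was visualised with Alexa488 anti-GST antibody at 488 nm. Binding intensity is the highest Masliner-normalised natural-log median intensity across replicate spots of either probe orientation.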
row,Sequence,gcPBM binding intensity (ln)
1,ATTAAAATAATTTAATTTCTTAGACACAATTTGTAA [GTGCAC_negctrl_site331],5.99
2,TCTTAATTTGTTATATGTACATAATATAATTGTATA [XGTACX_site5184],6.47
3,TATTTTGTAATAATTACACACGGAATTATAACAGAA [CACACA_site2355],6.58
4,ATATATATATTTATATTTATATGTAAATATCAACGT [TGCATGCA_negctrl_site32],8.19
5,TTATATTAATAAAAAGAAAATCATTTTTTCTTTTAT [CACACA_negctrl_site1595],5.83
6,TATTTATATTTATATACACACATACATATTTATATT [CACACA_site6535],6.5
7,AATATGTCTATATTTTTTATATGGAAATATTATAAA [GTGCAC_negctrl_site700],6.04
8,CAAAAGGATAGGCACACACACACACCCATATATATA [CACACA_site2199],6.87
9,TTTTTTTTTTTTTTTTTTTTTTTATCTATTATTTAT [XGTACX_negctrl_site496],6.22
10,AAACAAAAAATTTAAAGTACAAAAATTATGATTGTT [XGTACX_site465],6.32
11,AAAAAATTAATATTGACACACATTTTTAAGAATAAT [CACACA_site239],6.25
12,TATATTAATAATAAGTGTACATATATATATATTTTT [XGTACX_site288],6.57
13,AATATATAGAGAGATATGCACACTGTATGAATGCAC [CACACA_site2677],8.81
14,AATGAGAAATATAATTGTACATATATTTATTTTCAT [XGTACX_site3669],6.23
15,ATTTGTAAAAAATTCATACACACGTCTTATTTTTAA [CACACA_site1390],6.32
16,TATTTTTTCTTTCATTGTACTTTTTTTTTGTTTTGT [XGTACX_site4081],6.8
17,AATACTATTATTATTGCACACTTATTATCCCTCGGA [CACACA_site4262],10.2
18,TATAAAAATATTTCTACACACATTAATATATATATA [CACACA_site1150],8.41
19,TTTTTATTTTTTGTCTGTACATATATAAATTTATTA [XGTACX_site1525],6.94
20,GATATAAGGGTATGAAGTACATAAATATTTTATGCT [XGTACX_site1886],6.34
21,TATGCACGCGAACACACACACACAACTAAAAAATAA [CACACA_site7251],8.9
22,ATACATATATAAATATGTACACACATATGTATGATC [XGTACX_site8219],6.46
23,AAAAAAAAAAAAAAAACACACATACACCCAGACACA [CACACA_site5807],6.82
24,GGAAACCCTCCCAAATGTACTTTTATAAAAAAATAC [XGTACX_site5502],6.98
